# Data published in the supplement of paper PMC3694890.
# ± gives the uncertainty stated by the source. The list shows a part of the results. Phosphotyrosine is written y.
# B1: CSK_184/A1 (peptide)
# chain: yRSGWA
# B2: ABL1_393/A1 (peptide)
# chain: yTAHAG
# B3: ABL2_116/A1 (peptide)
# chain: yDFVAS
# B4: DDR1_520/A1 (peptide)
# chain: yARPPR
# B5: DDR1_513/A1 (peptide)
# chain: yRLLLA
# B6: CSK_304/A1 (peptide)
# chain: yLEGNN
# B7: DDR1_740/A1 (peptide)
# chain: yPMLLH
# B8: CRK_136/A1 (peptide)
# chain: yVRALF
# B9: DAG1_863/A1 (peptide)
# chain: yQPPPP
# B10: CSF1R_708/A1 (peptide)
# chain: yVRRDS
# B11: DDR1_869/A1 (peptide)
# chain: yLSRPP
# B12: CSK_416/A1 (peptide)
# chain: yEVMKN
# B13: ABL1_469/A1 (peptide)
# chain: yELMRA
# B14: CRKL_207/A1 (peptide)
# chain: yAQPQT
# B15: EGFR_1016/A1 (peptide)
# chain: yLIPQQ
# B16: CSPG2_208/A1 (peptide)
# chain: yPIRAP
# Target: GRB2 (endogenous complexes from cell lysate), P62993
# Test: GRB2 complex binding differential signal (pY peptide minus Ala control peptide) (fluorescence intensity units); higher = stronger GRB2 complex binding
# Conditions: MCF7
# Experimental: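 In situ synthesized µParaflo PepArray of 6-mer peptides, each starting with an N-terminal phosphotyrosine (lowercase 'y' = pY) followed by 5 native residues. Peptides are tethered to glass through a long linker. Chips were incubated overnight at 4°C with total cell lysate (1 mg in 1 mL) from MCF10A, MCF7, T47D or MDA-MB-231 cells. Bound endogenous GRB2-containing complexes were detected with rabbit anti-GRB2 and an Alexa647 secondary antibody. Signals are background-subtracted and averaged over replicate spots, then the matched Ala-substituted control peptide signal is subtracted (differential signal).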
# 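Note: phosphopeptide probes on the chip at 1–4 µM, lysate proteins bound in 20 mM Tris pH 7.0 buffer with 140 mM NaCl, 1% Triton X-100 and 5% glycerol.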
row,Binder,GRB2 complex binding differential signal
1,B1,251 ± 260
2,B2,3830 ± 430
3,B3,-37 ± 320
4,B4,3860 ± 570
5,B5,147 ± 340
6,B6,448 ± 480
7,B7,29.3 ± 300
8,B8,659 ± 680
9,B9,4960 ± 1500
10,B10,1950 ± 540
11,B11,2660 ± 1700
12,B12,696 ± 260
13,B13,1050 ± 420
14,B14,2800 ± 1100
15,B15,10200 ± 2600
16,B16,687 ± 680

# Same assay, conditions: MCF10A
row,Binder,GRB2 complex binding differential signal
1,B1,298 ± 170
2,B2,1300 ± 460
3,B3,103 ± 170
4,B4,1250 ± 400
5,B5,236 ± 290
6,B6,141 ± 150
7,B7,190 ± 220
8,B8,253 ± 410
9,B9,3710 ± 760
10,B10,829 ± 290
11,B11,2170 ± 370
12,B12,493 ± 220
13,B13,452 ± 340
14,B14,3420 ± 890
15,B15,5490 ± 810
16,B16,2180 ± 1100

# Same assay, conditions: MDA-MB-231
row,Binder,GRB2 complex binding differential signal
1,B1,487 ± 270
2,B2,935 ± 510
3,B3,306 ± 280
4,B4,961 ± 330
5,B5,999 ± 300
6,B6,564 ± 310
7,B7,98.5 ± 210
8,B8,1000 ± 590
9,B9,1790 ± 520
10,B10,702 ± 310
11,B11,1850 ± 480
12,B12,935 ± 260
13,B13,1180 ± 320
14,B14,1410 ± 630
15,B15,2420 ± 620
16,B16,359 ± 930

# Same assay, conditions: T47D
row,Binder,GRB2 complex binding differential signal
1,B1,170 ± 980
2,B2,1450 ± 1100
3,B3,630 ± 1500
4,B4,722 ± 960
5,B5,2120 ± 1000
6,B6,230 ± 870
7,B7,205 ± 1300
8,B8,2470 ± 1200
9,B9,1650 ± 1100
10,B10,352 ± 880
11,B11,2850 ± 1600
12,B12,449 ± 900
13,B13,1720 ± 1700
14,B14,1110 ± 1100
15,B15,1100 ± 2600
16,B16,414 ± 1300
